# Experimental data as given in PubChem BioAssay AID1347120 (National Center for Advancing Translational Sciences (NCATS), 2019).
# The whole screen tested about 390,000 compounds, of which about 930 (0.24%) were called active. The inconclusive results got no clear call from the source; some entries with a clear call stand among them for comparison. Calls come from the whole dose curve; as a rule, active = well fitted activation curve with a large enough effect; inconclusive = small, poorly fitted or top-dose-only effect; inactive = no such curve, though single readings can be large or run the other way. A potency beside an inconclusive call is a rough fit, not a confirmed value.
# Assay: qHTS for Suppressors of FUS Proteinopathy: Primary screen using FUS-linked yeast assay; note: nearly all actives have a fitted effect of over 55% in size;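 for growth rescue (activation): plate controls were DMSO vehicle for no effect and reference control for full effect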
# Settings: S. cerevisiae FUS-expressing, OD600, 24 h; Potency: growth rescue; growth rescue (activation): at 76.6 µM (top of the series)
# Method in brief: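 Read-out: OD at 600 nm after 24hr at 30C, reporting rescue of FUS-induced yeast toxicity. Cells at OD 0.005 in galactose (2%) minimal medium; compounds tested in a dilution series; CP55940 titration from 92uM final as control.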
# Potency is the fitted concentration of half-maximal effect; tags give direction and shape of the fitted curve.
Structure (SMILES),growth rescue (activation),Potency
COc1ccc(OC)c(NS(=O)(=O)c2cc3c(cc2Cl)N(C(C)=O)CCO3)c1,inactive: 26.5%,–
Cc1ccc(Sc2c(C)nn(-c3ccccc3)c2OC(=O)C(C)(C)C)cc1,inactive: 20.1%,–
CC(/C=N/NC(=O)c1cc(-c2ccncc2)nc2ccccc12)=C\c1ccco1,–,active: 28.2 µM
COc1ccc2sc(-c3ccccc3OC)c(-c3ccc(OCCN4CCOCC4)cc3)c2c1,–,"inconclusive: 22.4 µM [activator, partial curve, poor fit]"
CCOC(=O)c1c(NC(=O)C(C)Sc2cn(CCNC(=O)c3c(F)cccc3F)c3ccccc23)sc2c1CCC2 (centres undefined),–,"inconclusive: 50.1 µM [activator, single point]"
COc1cccc(-n2nnnc2SCC(=O)Nc2ccccc2OC)c1,inactive: -5.68%,–
O=C(/C=C/[C@H]1O[C@@H](n2ccc(=O)[nH]c2=O)[C@H](O)[C@@H]1O)NCCN1CCOCC1,inactive: -17.3%,–
Cc1ccc(Cn2c(C(=O)O)c(CNCc3ccc(OC(C)C)cc3)c3ccc(C)cc32)cc1,–,"inconclusive: 39.8 µM [activator, single point]"
COc1cccc(OCc2nc3ccccc3n2CCOc2ccc(C)cc2)c1,–,"inconclusive: 22.4 µM [activator, partial curve, poor fit]"
NC(=O)c1sc2nc3c(c(-c4ccccc4)c2c1N)CCC3,–,"inconclusive: 20 µM [activator, partial curve, poor fit]"
Cc1ccc(SCCNC(=O)c2ccc(C)c(S(=O)(=O)Nc3cccc(C)c3)c2)cc1,–,active: 31.6 µM
CC(C)(C)OC(=O)N1CCC(NC(=O)c2[nH]cnc2C(=O)N[C@@H](Cc2ccccc2)C(=O)OCc2ccccc2)CC1,–,"inconclusive: 11.2 µM [activator, partial curve, poor fit]"
C=CCC[C@H](Cc1ccc(F)cc1)C(=O)OC[C@H](Cc1c[nH]c2ccccc12)NC(=O)[C@@H](CC=C)CC(=O)N[C@H](CO)Cc1ccccc1,–,"inconclusive: 10 µM [activator, full curve]"
COc1cc(Br)c(-c2sc(Nc3ccccc3)n[n+]2-c2ccccc2)cc1OC,–,"inconclusive: 28.2 µM [activator, single point]"
CCCCC(=O)Nc1cccc(NC(=O)c2cccc([N+](=O)[O-])c2)c1,inactive: -18%,–
CC(C)CC1C(=O)N(Cc2cn(Cc3ccco3)nn2)CCS(=O)(=O)N1Cc1ccc(-c2cccc(CO)c2)cc1 (centres undefined),–,"inconclusive: 28.2 µM [activator, single point]"
COc1ccc(NC(c2nnc(-c3ccccc3)o2)c2ccccc2F)cc1Cl (centres undefined),–,"inconclusive: 31.6 µM [activator, single point]"
Cc1ccc2c(c1)c1c3n2CCN(C(=O)C2CC2)C3CCC1 (centres undefined),inactive: -3.47%,–
CCOc1ccc(CCNC(=O)c2ccccn2)cc1OCC,inactive: -3.85%,–
O=C1CN(c2ccccc2)C(=O)N1,inactive: -23.2%,–
CCn1nc(C)c2c(-c3ccccc3)cc(=O)n(C(C)C(=O)NCCC(C)C)c21 (centres undefined),inactive: 23.9%,–
COc1ccc(S(=O)(=O)NCC(c2ccco2)S(=O)(=O)c2ccc(C)cc2)cc1F (centres undefined),inactive: 37.6%,–

Structure (SMILES),growth rescue (activation),Potency
COc1ccc(-c2cc(C(=O)NN=Cc3cccn3C)[nH]n2)cc1,inactive: 41.7%,–
O=C(OCc1ccc(Br)cc1)c1cc([N+](=O)[O-])ccc1N1CCOCC1,–,"inconclusive: 17.8 µM [activator, partial curve]"
COc1ccc(-c2cn[nH]c2-c2ccc(OCC(=O)NN)cc2O)cc1OC,–,"inconclusive: 50.1 µM [activator, single point]"
CCOC(=O)c1ccc(NC(=O)CC2C(=O)N(c3ccc(F)cc3)C(=O)N2Cc2cccnc2)cc1 (centres undefined),inactive: 16%,–
CS(=O)(=O)Nc1ccc(C2=NN(C(=O)c3cccc(F)c3)C(c3cccs3)C2)cc1 (centres undefined),–,"inconclusive: 44.7 µM [activator, single point]"
COc1ccc(C2c3c(-c4ccccc4O)n[nH]c3C(=O)N2CCc2ccc(OC)c(OC)c2)cc1 (centres undefined),inactive: 8.52%,–
O=C(Nc1nnc(C2CC2)o1)c1ccc(S(=O)(=O)N2CCCc3ccccc32)cc1,inactive: 27.2%,–
Cc1cccc(-n2c(SCC(=O)Nc3ncc(Cl)cc3Cl)nc3ccccc32)c1,–,"inconclusive: 15.8 µM [activator, partial curve]"
COc1ccc(-c2ccc(CCC(=O)O)n2CC(C)C)cc1,–,"inconclusive: 28.2 µM [activator, partial curve, poor fit]"
CCN(c1ccccc1)S(=O)(=O)c1ccc(NC(=O)c2nc(SC)ncc2Cl)cc1,–,"inconclusive: 11.2 µM [activator, partial curve, poor fit]"
CCN(C(=O)c1cc2c(=O)n3ccccc3nc2n1C)C1CCCCC1,inactive: 30.3%,–
O=S(=O)(N[C@H]1CCCC[C@@H]1N1CCOCC1)c1ccc(Cl)cc1,inactive: -11.7%,–
CCOc1ccc(NCc2cccn2-c2nnc(N3CCC(C(=O)NCC(C)c4ccccc4)CC3)s2)cc1 (centres undefined),–,"inconclusive: 14.1 µM [activator, partial curve, poor fit]"
CCOC(=O)c1cc(-c2ccc(OC)cc2)n(CCC(=O)Nc2ccccc2OC)c1C,–,"inconclusive: 39.8 µM [activator, single point]"
O=C(C[n+]1ccc(-c2cc(C(=O)Nc3cccc(C(F)(F)F)c3)c3ccccc3n2)cc1)c1cccc([N+](=O)[O-])c1,–,"inconclusive: 14.1 µM [activator, partial curve, poor fit]"
Cc1cccc2sc(N(Cc3cccnc3)C(=O)CCc3ccccc3)nc12,–,"inconclusive: 50.1 µM [activator, single point]"
CCOC(=O)c1ccc(N2C(=O)c3[nH]nc(-c4ccccc4)c3C2c2ccc(CC)cc2)cc1 (centres undefined),–,"inconclusive: 28.2 µM [activator, single point]"
COc1ccc(NC(=O)CSc2nc3ccccc3c(=O)n2CCC(=O)N2CCCCC2)cc1,–,"inconclusive: 44.7 µM [activator, single point]"
O=C(Cn1c(=O)n(Cc2nc(-c3ccccc3)no2)c(=O)c2ccccc21)Nc1cccc(C(F)(F)F)c1,inactive: -36.7%,–
O=C(NC1CC(=O)N(c2ccc(F)cc2)C1)c1ccc(S(=O)(=O)N2CCCCC2)cc1 (centres undefined),–,"inconclusive: 35.5 µM [activator, single point]"
CN1C(=O)C[C@@](C#N)(C(=O)NCc2ccc3c(c2)OCO3)[C@H]1c1ccccc1,inactive: 11.8%,–
CC(C)CC1C(=O)N(Cc2cn(CC3CCCCC3)nn2)CCS(=O)(=O)N1Cc1ccc(-c2ccc(F)nc2)cc1 (centres undefined),–,"inconclusive: 50.1 µM [activator, single point]"

Structure (SMILES),growth rescue (activation),Potency
COC(=O)c1ccc(NC(=O)c2ccc3nccnc3c2)cc1,–,"inconclusive: 0.891 µM [activator, full curve, poor fit]"
COc1ccc(Nc2nnc(SCc3cc(=O)n4ccsc4n3)s2)cc1,–,"inconclusive: 44.7 µM [activator, partial curve, poor fit]"
C=CCN1C(=O)[C@H](CC(=O)NCc2cccc3ccccc23)[C@@]2(C(=O)OCC)CCCC=C12,–,"inconclusive: 31.6 µM [activator, single point]"
Cc1c(NC(=O)/C(C#N)=C/c2ccc(-c3ccc(Cl)c(Cl)c3)o2)c(=O)n(-c2ccccc2)n1C,–,"inconclusive: 28.2 µM [activator, partial curve]"
C/C(=N\OC(=O)c1ccc(F)cc1)c1sc(-c2ccccc2)nc1C,inactive: -49.7%,–
CC(C)CN(C(=O)CSc1nnnn1-c1ccccc1)c1c(N)n(CC(C)C)c(=O)[nH]c1=O,–,"inconclusive: 44.7 µM [activator, partial curve, poor fit]"
O=C(CN1C(=O)COc2ccccc21)NCCc1ccc(Cl)cc1,–,"inconclusive: 50.1 µM [activator, single point]"
O=C1C=C(Nc2ccc(Cl)cc2)CC(c2ccco2)C1 (centres undefined),–,"inconclusive: 39.8 µM [activator, partial curve, poor fit]"
CCn1nc(C(=O)Nc2nc(-c3ccccn3)cs2)c2ccccc2c1=O,inactive: -17.7%,–
O=[N+]([O-])c1cccnc1N1CCC(c2cc(-c3ccc(Cl)cc3)n[nH]2)CC1,–,"inconclusive: 35.5 µM [activator, partial curve, poor fit]"
CC1CCc2c(sc3ncnc(NCCCOC(C)C)c23)C1 (centres undefined),–,"inconclusive: 28.2 µM [activator, single point]"
C#CCNC(=O)C[C@H]1C[C@@]2(C(=O)OC)C(=C[C@H](COCc3ccccc3)O[C@@H]2C)N(Cc2ccc(Cl)cc2Cl)C1=O,–,"inconclusive: 31.6 µM [activator, single point]"
Cc1nn(-c2ccccc2)nc1C(=O)Nc1ccc2[nH]ncc2c1,inactive: 1.42%,–
CCCC(=O)Nc1nc(C)c(-c2csc(Nc3ccccc3OC)n2)s1,–,"inconclusive: 50.1 µM [activator, single point]"
COc1ccc(NC(=O)c2sc3nc(-c4cccnc4)ccc3c2N)cc1OC,inactive: 21.8%,–
COc1ccc(CCN2C(=O)c3ccccc3C2c2nnnn2C(C)C)cc1OC (centres undefined),inactive: -3.17%,–
CCOC(=O)N1CCN(C(=O)c2cn(CC)c3ccc(S(=O)(=O)N(C)C4CCCCC4)cc3c2=O)CC1,–,"inconclusive: 12.6 µM [activator, partial curve]"
COC(=O)C1=C(C(=O)OC)[C@@H]2N(C)c3ccc(OC)cc3[C@@]23C[C@@H](C(=O)OC)N(S(=O)(=O)c2ccc([N+](=O)[O-])cc2)C3=N1,–,"inconclusive: 31.6 µM [activator, partial curve]"
CC1(C(=O)NS(=O)(=O)c2ccc(Cl)cc2)CCN1C(=O)C/C=C/c1ccccc1 (centres undefined),inactive: -2.7%,–
Cn1c(-c2ccsc2)c(-c2cccs2)c2cc(-c3ccc4cc[nH]c4c3)ccc21,–,"inconclusive: 7.94 µM [activator, partial curve]"
